Data taken from the supplement of paper PMC7826260.
This is one part of the list. Each Rep nickase domain was tested in vitro on the same pool of single strands at 3 µM enzyme and 37 °C for 1 h; the strands have 90 letters, of which the middle is given. Uncut reads are compared with the no-enzyme pool on a log2 scale; the lower, the more was cut; hits are not called. The scaling is to total reads; values above 0 arise when much of the pool is cut.

Experiments:
Test in all cases: uncleaved DNA left, log2 of reads against the no-enzyme library (log2 ratio); higher = less cleavage (more negative = more Rep cleavage of the k-mer); sequences stand for … in CTCGTCCG…ACCGGAGA
[1] = tested on: T1, Rep nickase domain of Muscovy duck circovirus
T1 sequence (protein, residues 1-111, tag omitted): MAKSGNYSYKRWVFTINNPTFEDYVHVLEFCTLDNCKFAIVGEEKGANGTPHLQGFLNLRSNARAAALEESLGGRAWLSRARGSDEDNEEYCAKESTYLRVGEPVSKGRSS
Protocol: (§1)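 A pool of 90-nt single-stranded DNAs with seven random bases just before the constant AC of the nick site (name = the seven bases) was cut by 3 µM recombinant His6-SUMO-tagged Rep nickase domain (300 nM DNA, 50 mM HEPES pH 8.0, 50 mM NaCl, 1 mM MnCl2, 1 h, 37 °C, three replicates). Uncut DNA was amplified and sequenced.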

[2] = tested on: T2, Rep nickase domain of banana bunchy top virus
T2 sequence (protein, residues 1-94, tag omitted): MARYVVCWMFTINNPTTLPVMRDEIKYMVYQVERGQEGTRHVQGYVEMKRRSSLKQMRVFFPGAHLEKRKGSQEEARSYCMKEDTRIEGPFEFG
Protocol: as §1

[3] = tested on: T3, Rep nickase domain of cabbage leaf curl virus
T3 sequence (protein, residues 1-116, tag omitted): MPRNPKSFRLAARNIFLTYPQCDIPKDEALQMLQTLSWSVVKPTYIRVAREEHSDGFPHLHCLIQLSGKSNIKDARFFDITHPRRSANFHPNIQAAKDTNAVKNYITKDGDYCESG
Protocol: as §1

[4] = tested on: T4, Rep nickase domain of chickpea chlorotic dwarf virus
T4 sequence (protein, residues 1-124, tag omitted): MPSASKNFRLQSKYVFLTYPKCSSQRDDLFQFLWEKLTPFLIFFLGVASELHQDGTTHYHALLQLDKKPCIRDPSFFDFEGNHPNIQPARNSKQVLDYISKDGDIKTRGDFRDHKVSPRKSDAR
Protocol: as §1

[5] = tested on: T5, Rep nickase domain of faba bean necrotic yellows virus
T5 sequence (protein, residues 1-98, tag omitted): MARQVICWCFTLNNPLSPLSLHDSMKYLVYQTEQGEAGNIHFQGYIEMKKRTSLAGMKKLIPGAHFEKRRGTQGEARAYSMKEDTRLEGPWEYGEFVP
Protocol: as §1

[6] = tested on: T6, Rep nickase domain of maize striate mosaic virus
T6 sequence (protein, residues 1-117, tag omitted): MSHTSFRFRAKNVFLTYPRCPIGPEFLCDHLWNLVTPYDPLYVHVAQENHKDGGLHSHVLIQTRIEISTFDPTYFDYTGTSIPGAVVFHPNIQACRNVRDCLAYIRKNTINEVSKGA
Protocol: as §1

[7] = tested on: T7, Rep nickase domain of porcine circovirus 2
T7 sequence (protein, residues 2-116, tag omitted): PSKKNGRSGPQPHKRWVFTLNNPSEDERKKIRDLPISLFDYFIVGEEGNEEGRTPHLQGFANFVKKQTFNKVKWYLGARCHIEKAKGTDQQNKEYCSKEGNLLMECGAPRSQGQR
Protocol: as §1

[8] = tested on: T8, Rep nickase domain of tomato golden mosaic virus
T8 sequence (protein, residues 1-124, tag omitted): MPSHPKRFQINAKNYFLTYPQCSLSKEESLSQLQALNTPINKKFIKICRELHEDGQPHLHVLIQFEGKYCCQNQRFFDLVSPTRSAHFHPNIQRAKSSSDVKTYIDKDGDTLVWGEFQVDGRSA
Protocol: as §1

[9] = tested on: T9, Rep nickase domain of tomato yellow leaf curl virus
T9 sequence (protein, residues 1-136, tag omitted): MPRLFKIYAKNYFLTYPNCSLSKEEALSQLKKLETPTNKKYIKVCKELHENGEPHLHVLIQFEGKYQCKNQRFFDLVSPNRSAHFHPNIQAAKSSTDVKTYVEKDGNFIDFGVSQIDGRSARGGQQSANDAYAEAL
Protocol: as §1

[10] = tested on: T10, Rep nickase domain of wheat dwarf virus
T10 sequence (protein, residues 1-137, tag omitted): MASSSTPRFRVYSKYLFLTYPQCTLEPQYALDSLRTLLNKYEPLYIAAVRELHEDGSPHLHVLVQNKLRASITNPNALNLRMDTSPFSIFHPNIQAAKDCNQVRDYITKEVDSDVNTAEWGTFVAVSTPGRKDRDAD
Protocol: as §1

Sequence | uncleaved DNA left (log2) [1] | uncleaved DNA left (log2) [2] | uncleaved DNA left (log2) [3] | uncleaved DNA left (log2) [4] | uncleaved DNA left (log2) [5] | uncleaved DNA left (log2) [6] | uncleaved DNA left (log2) [7] | uncleaved DNA left (log2) [8] | uncleaved DNA left (log2) [9] | uncleaved DNA left (log2) [10]
CCCCAGT | -0.163 | -0.00926 | -0.353 | -0.959 | -0.263 | -0.902 | -0.224 | -0.125 | -0.0631 | -0.18
TCCTGCC | 0.000111 | -0.144 | -0.3 | -0.638 | -0.0876 | -1.09 | -0.0682 | -0.174 | -0.114 | -0.183
TACGTGG | -0.0135 | -0.113 | 0.0418 | -0.00922 | 0.00742 | -0.173 | 0.0876 | 0.0165 | 0.0117 | -0.0449
CATCAAT | 0.141 | 0.158 | 0.333 | 0.423 | 0.0957 | 0.298 | -0.136 | 0.024 | 0.14 | 0.204
ATAGTCT | -0.129 | -0.107 | -0.386 | -2.37 | -0.132 | -0.972 | -0.234 | -0.112 | -0.142 | -0.202
AATGCGG | 0.00528 | 0.0955 | -0.182 | -0.284 | 0.0893 | -0.498 | 0.209 | 0.124 | 0.145 | 0.108
TCACTTG | -0.103 | -0.149 | -0.324 | -1.16 | -0.113 | -0.947 | 0.0265 | -0.168 | -0.142 | -0.119
TTGACAT | 0.0694 | 0.0537 | 0.877 | 1.97 | 0.00123 | 2.15 | 0.201 | 0.0294 | 0.0302 | 0.113
AATTTAG | 0.0679 | -0.0244 | -0.865 | -0.506 | 0.0428 | -1.38 | 0.195 | 0.0105 | 0.0184 | -0.029
TGCGTCT | -0.00031 | -0.207 | -0.22 | -0.506 | -0.133 | -0.147 | -0.042 | -0.165 | -0.103 | -0.168
AGCTCAA | -0.0963 | 0.0181 | 0.0449 | 0.351 | 0.0158 | 0.151 | -0.497 | -0.0286 | -0.154 | -0.0179
AATGGCT | 0.0231 | 0.105 | 0.111 | 0.588 | 0.0942 | 0.502 | 0.13 | 0.102 | -0.0575 | -0.0213
GATTTTC | -0.458 | -0.109 | 0.348 | 0.528 | -0.0603 | 0.904 | -0.413 | 0.0179 | 0.0465 | 0.167
ACTAGAC | 0.00634 | 0.052 | 0.0831 | 0.429 | 0.0689 | -0.279 | 0.171 | 0.223 | 0.0933 | 0.131
GAATTTT | -3.38 | -0.701 | -3.33 | -2.84 | -0.156 | -2.23 | -3.64 | -3.09 | -0.408 | -3.26
ATCATTC | -0.0427 | -0.335 | -0.582 | -0.664 | -0.0493 | -1.16 | -0.113 | -0.25 | -0.228 | -0.299
CGTGGGA | 0.112 | -0.0191 | 0.27 | 0.5 | 0.0388 | 0.0919 | 0.0704 | 0.0705 | 0.013 | 0.0327
GAGTTAA | -0.0253 | 0.064 | 0.252 | 0.533 | 0.0709 | 1.17 | -2.43 | 0.124 | 0.103 | 0.116
CTGCCGA | -0.0575 | -0.0328 | -0.171 | -0.253 | -0.0153 | -0.521 | 0.0311 | -0.0532 | 0.0684 | -0.12
TAGGAGT | -0.0907 | -0.0706 | 0.302 | 0.558 | -0.112 | 1.06 | -0.527 | 0.0186 | -0.0876 | -0.0479
TATAAGG | 0.128 | 0.0689 | 0.466 | 1.32 | 0.0319 | 1.59 | 0.159 | 0.154 | -0.0313 | 0.044
ATTAGAT | 0.0044 | 0.119 | 0.337 | 1.23 | 0.102 | 1.35 | -0.0139 | 0.0976 | -0.0401 | 0.164
GCTGTGC | 0.0862 | 0.0352 | -0.268 | -0.256 | 0.0212 | -0.899 | 0.0944 | 0.0404 | 0.0249 | -0.0559
AAGTGCA | -0.0175 | -0.0455 | -0.558 | -0.787 | -0.0408 | -0.876 | -2.78 | -0.00314 | 0.036 | -0.0687
TGACATG | 0.115 | -0.00566 | 0.136 | 0.887 | -0.0068 | 1.16 | 0.0953 | -0.105 | 0.0334 | 0.0187
CCAGGGG | 0.0471 | 0.0432 | 0.154 | 0.515 | -0.113 | 0.178 | 0.247 | 0.107 | 0.0185 | 0.067
GATTGGT | -2.55 | -2.56 | -0.11 | -0.214 | -0.142 | -0.432 | -3.03 | -0.063 | 0.105 | -0.022
CCGCTTT | -0.158 | -0.0331 | -0.0461 | -1.42 | 0.0791 | -0.452 | -0.395 | -0.179 | -0.122 | -0.218
CATTTAG | 0.0651 | 0.00591 | -0.682 | -0.015 | 0.175 | -0.764 | 0.206 | 0.127 | 0.19 | 0.0197
